Results taken from PubChem BioAssay AID2147 (National Center for Advancing Translational Sciences (NCATS), 2009).
Hit rate of the full screen: of about 230,000 compounds, about 3,600 (1.6%) were called active. Inconclusive results, whose numbers are uncertain, are shown with a selection of clear calls. The call rests on the fitted dose curve; in most records, active means well fitted inhibition curve with a large enough effect (not every such curve was filed as active); inconclusive means small, poorly fitted or top-dose-only effect, or another doubt; inactive means no such curve, though single readings can be large or run the other way. A potency beside an inconclusive call is a rough fit, not a confirmed value.

Each compound was assayed against Lysine-specific demethylase 4E (Homo sapiens) (UniProt B2RXH2) (assay: qHTS Assay for Inhibitors of Human Jumonji Domain Containing 2E (JMJD2E)). Conditions: JMJD2E catalytic domain, FDH-coupled NADH fluorescence (FDH is formaldehyde dehydrogenase); series mostly up to 57.1 µM.
UniProt B2RXH2, sequence (B2RXH2 whole entry, looked up, the tested form may be a part): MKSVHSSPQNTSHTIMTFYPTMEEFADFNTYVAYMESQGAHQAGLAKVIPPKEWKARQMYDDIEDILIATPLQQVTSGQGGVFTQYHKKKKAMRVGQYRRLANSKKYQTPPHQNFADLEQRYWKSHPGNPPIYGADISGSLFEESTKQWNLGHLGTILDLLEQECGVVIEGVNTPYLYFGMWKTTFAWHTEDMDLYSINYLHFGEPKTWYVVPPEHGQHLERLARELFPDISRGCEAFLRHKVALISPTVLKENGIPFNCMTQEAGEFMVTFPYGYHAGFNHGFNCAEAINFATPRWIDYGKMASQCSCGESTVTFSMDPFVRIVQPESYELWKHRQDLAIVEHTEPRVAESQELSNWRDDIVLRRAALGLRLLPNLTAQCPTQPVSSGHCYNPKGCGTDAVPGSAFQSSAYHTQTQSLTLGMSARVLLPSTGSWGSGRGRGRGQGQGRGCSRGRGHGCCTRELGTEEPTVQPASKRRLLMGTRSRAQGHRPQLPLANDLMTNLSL
Further: nearly all actives have a fitted effect of over 50% in size.
Potency means the concentration at half of the fitted maximal effect; tags describe the fitted curve by direction and shape.

Row | SMILES | Potency
1 | Cn1c(C(=O)O)c(CC(=O)N2CCC(Cc3ccccc3)CC2)c2ccccc21 | active: 31.6 µM
2 | S=C(NCc1ccco1)N1CCN(c2ccccn2)CC1 | inconclusive: 39.8 µM [inhibitor, single point]
3 | COc1ccc(-c2cc(C(F)(F)F)nc(SCC(=O)N3CC(C)OC(C)C3)n2)cc1OC (stereo not drawn) | inconclusive: 14.1 µM [inhibitor, partial curve]
4 | Cc1ccc(-c2nc(N)sc2-c2ccc(C)cc2)cc1 | inconclusive: 39.8 µM [inhibitor, single point]
5 | COCCn1c(=NC(=O)/C=C/c2ccccc2)sc2cc(NC(C)=O)ccc21 | inconclusive: 22.4 µM [inhibitor, partial curve]
6 | Cc1ccc2c(c1)c1c(n2CC(O)CN2CCCCC2C)CCCC1 (stereo not drawn) | inconclusive: 35.5 µM [inhibitor, single point]
7 | CCOc1ccc(NC(=S)Nc2cccc3cnccc23)cc1 | inconclusive: 31.6 µM [inhibitor, single point]
8 | CC(=O)n1cc([C@H]2C=C(C(=O)N3CCN(Cc4ccccc4)CC3)O[C@@H](OCCCCO)C2)c2ccccc21 | inconclusive: 28.2 µM [inhibitor, single point]
9 | O=C(O)c1cccc(-n2cccc2/C=C2/NC(=O)N(c3ccc(Cl)cc3)C2=O)c1 | inconclusive: 3.16 µM [inhibitor, full curve]
10 | COc1ccc(/C=C2/SC(=O)N(CC(=O)NCCC(C)C)C2=O)cc1OC | inconclusive: 10 µM [inhibitor, partial curve]
11 | Cc1ccc2nc(COc3ccc(Cl)cc3)cc(=O)n2c1 | inconclusive: 28.2 µM [inhibitor, partial curve]
12 | Cc1nn(-c2ccccn2)c2c1C(c1ccsc1)C1=C(CCCC1=O)N2 (stereo not drawn) | inconclusive: 10 µM [inhibitor, partial curve]
13 | O=C(c1ccc(F)cc1)c1cnc(Nc2ccccc2)s1 | inactive
14 | COc1cc2[nH]c(=S)nc(NCc3ccccn3)c2cc1OC | inactive
15 | CCc1ccc(NC2CC(=O)N(CCc3ccc(OC)c(OC)c3)C2=O)cc1 (stereo not drawn) | inconclusive: 0.0056 µM [inhibitor, full curve, poor fit]
16 | COc1cccc(CNC2CCCc3ccccc32)c1OC (stereo not drawn) | inconclusive: 39.8 µM [inhibitor, single point]
17 | COc1ccc(C2CC(c3ccccc3)=NN2c2ccc(N)cc2)cc1 (stereo not drawn) | inconclusive: 22.4 µM [inhibitor, partial curve]
18 | COc1cccc(N2C(=O)CC(N3CCC(c4nc5ccccc5[nH]4)CC3)C2=O)c1 (stereo not drawn) | inactive
